# Measured values from PubChem BioAssay AID602179 (National Center for Advancing Translational Sciences (NCATS), 2012).
# Among all 390,000 compounds or so, about 360 (0.092%) were called active. The shares of active, inactive and inconclusive entries below differ from those in the screen. Calls come from the whole dose curve; as a rule, active = well fitted inhibition curve with a large enough effect; inconclusive = small, poorly fitted or top-dose-only effect; inactive = no such curve, though single readings can be large or run the other way. A potency beside an inconclusive call is a rough fit, not a confirmed value.
# Biological target: Isocitrate dehydrogenase [NADP] cytoplasmic (Homo sapiens) (UniProt O75874)
# Assay: qHTS for Inhibitors of mutant isocitrate dehydrogenase 1 (IDH1): qHTS; note: nearly all actives have a fitted effect of over 65% in size
# Conditions: IDH1-R132H enzyme, NADPH consumption, diaphorase/resazurin fluorescence; series mostly up to 76.6 µM
# Procedure, shortened: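 IDH1-R132H (0.5 ug/mL) preincubated 30 min with compound, then NADPH (0.016 mM) and alpha-KG (2 mM) added; 80 min at RT, pH 7.5. Remaining NADPH coupled via diaphorase/resazurin to fluorescence (540/590 nm); concentration-response curves normalized to no-enzyme control.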
# Potency is the fitted concentration of half-maximal effect; tags give direction and shape of the fitted curve.
row,Compound,Potency
1,COc1cccc2cc(C(=O)C3=C(O)C(=O)N(CCN4CCOCC4)C3c3ccc(C(C)(C)C)cc3)oc12 (stereo not drawn),"inconclusive: 52.1 µM [inhibitor, partial curve]"
2,CN1CCN(CC(=O)Nc2ccccc2Sc2ccccc2)CC1,inactive
3,CCn1cc(S(=O)(=O)c2ccccc2)c(=O)c2cc(F)c(N3CCCCCC3)cc21,"inconclusive: 39.8 µM [inhibitor, partial curve]"
4,COc1ccc(S(=O)(=O)Nc2ccc(O)c(Sc3nc4ccccc4s3)c2)cc1,"inconclusive: 58.5 µM [inhibitor, partial curve, poor fit]"
5,O=C1[C@H](Cc2ccccc2)NCCCC[C@@H](c2ccc(Cl)cc2)N1Cc1ccccc1,"inconclusive: 35.5 µM [inhibitor, partial curve]"
6,COc1ccc(OC)c(N(C(=O)c2snc(C(N)=O)c2N)C(C(=O)NCc2ccccc2)c2ccc(O)cc2)c1 (stereo not drawn),"inconclusive: 52.1 µM [inhibitor, partial curve]"
7,COc1ccc(C(=O)Oc2c(Sc3ccccc3)c(C)nn2-c2ccccc2)c(OC)c1,"inconclusive: 63.1 µM [inhibitor, single point]"
8,CCN(CC)S(=O)(=O)c1ccc2c(c1)N(CC(=O)Nc1ccc(Cl)cc1)C(=O)C1CCCN21 (stereo not drawn),"inconclusive: 25.1 µM [inhibitor, partial curve]"
9,CCc1nc(SCC(=O)N2CC(=O)Nc3ccccc32)c2c(C)c(C)sc2n1,"inconclusive: 18.5 µM [inhibitor, full curve]"
10,Cc1c(Cl)ccc2sc(N3CCN(C(=O)CCS(=O)(=O)c4ccc(F)cc4)CC3)nc12,inactive
11,CC1=NNC(=O)/C1=C\c1cn(-c2ccccc2)nc1-c1ccc(Cl)cc1,"inconclusive: 58.5 µM [inhibitor, single point]"
12,Cn1cc(S(=O)(=O)c2cccc(Cl)c2)c(=O)c2cc(F)c(N3CCCCCC3)cc21,"inconclusive: 44.7 µM [inhibitor, single point]"
13,CC(C)(C)n1nnnc1C(c1cccs1)N(Cc1cccnc1)Cc1ccccc1Cl (stereo not drawn),"inconclusive: 11.7 µM [inhibitor, full curve]"
14,COc1ccccc1NC(=O)Cn1nc(-c2ccc3c(c2)OCCO3)ccc1=O,inactive
15,Cc1cc(Nc2cccc([N+](=O)[O-])c2)n2c(nc3ccccc32)c1C#N,inactive
16,C/C(=N/NS(=O)(=O)c1ccc(C(C)C)cc1)c1ccncc1,inactive
17,CC(=O)Nc1ccc(C2=NNC(=Nc3ccc(S(=O)(=O)N4CCOCC4)cc3)SC2)cc1,active: 13.1 µM
18,NC(=O)CSc1nc2c(c(=O)n1-c1ccccc1)C1(CCCCC1)Cc1ccccc1-2,active: 52.1 µM
